{
  "source": "the supplement of paper PMC9174493",
  "note": "The other results are listed elsewhere or left out. Single values of this set are uncertain. Values with irradiation are relative to irradiated vehicle.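 Further: viability correction based on the alamar blue assay, with concentrations leaving 10% survival or less dropped.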",
  "data": [
    {"test_system": "A549-Dual", "assay": "NF-kB reporter (SEAP) activity, viability-corrected, relative to vehicle (fold change vs vehicle); higher = more activation of STING-IRF / NF-kB immune response reporter", "details": "10 µM; irradiation: none", "values": [
      {"smiles": "CCC1C(O)C2C3CCC(C(C)CCC(=O)O)C3(C)CCC2C2(C)CCC(O)CC12", "note": "(centres undefined) [Obeticholic Acid]", "NF-kB reporter": 0.801},
      {"smiles": "OCCc1ccccc1", "note": "[Phenethyl alcohol]", "NF-kB reporter": 1.07},
      {"smiles": "CCCCc1nc(Cl)c(CO)n1Cc1ccc(-c2ccccc2-c2nnn[nH]2)cc1.[KH]", "note": "[Losartan Potassium (DuP 753)]", "NF-kB reporter": 0.909},
      {"smiles": "CCC(=O)OC1(C(=O)CCl)C(C)CC2C3CCC4=CC(=O)C=CC4(C)C3(F)C(O)CC21C", "note": "(centres undefined) [Clobetasol propionate]", "NF-kB reporter": 1.05},
      {"smiles": "Clc1ccc(C(Cn2ccnc2)OCc2ccsc2Cl)c(Cl)c1", "note": "(centres undefined) [Tioconazole]", "NF-kB reporter": 0.55},
      {"smiles": "CCN1CC(CCN2CCOCC2)C(c2ccccc2)(c2ccccc2)C1=O.Cl.O", "note": "(centres undefined) [Doxapram HCl]", "NF-kB reporter": 0.698},
      {"smiles": "C1CNCCN1.CC12CCC3c4ccc(OS(=O)(=O)O)cc4CCC3C1CCC2=O", "note": "(centres undefined) [Estropipate]", "NF-kB reporter": 1.13},
      {"smiles": "O=c1c(O)c(-c2ccc(O)cc2O)oc2cc(O)cc(O)c12", "note": "[Morin]", "NF-kB reporter": 0.579},
      {"smiles": "O=C(NCC(O)CO)c1c(I)c(C(=O)NCC(O)CO)c(I)c(N(CCO)C(=O)CO)c1I", "note": "(centres undefined) [Ioversol]", "NF-kB reporter": 0.832},
      {"smiles": "C[N+]1(C)CCC(OC(=O)C(O)(c2ccccc2)C2CCCC2)C1.[Br-]", "note": "(centres undefined) [Glycopyrrolate]", "NF-kB reporter": 0.631},
      {"smiles": "CCn1c(=O)c2c(nc(/C=C/c3ccc(OC)c(OC)c3)n2C)n(CC)c1=O", "note": "[Istradefylline]", "NF-kB reporter": 0.837},
      {"smiles": "Cc1c(O)c(=O)ccn1C", "note": "[Deferiprone]", "NF-kB reporter": 0.825},
      {"smiles": "CC(=O)Nc1ccc(C(=O)O)cc1.CC(=O)Nc1ccc(C(=O)O)cc1.CC(=O)Nc1ccc(C(=O)O)cc1.CC(O)CN(C)C.CC(O)CN(C)C.CC(O)CN(C)C.O=c1[nH]cnc2c1ncn2C1OC(CO)C(O)C1O", "note": "(centres undefined) [Isoprinosine]", "NF-kB reporter": 1.07},
      {"smiles": "CC(=O)O.CC(=O)O.CCC(C)CC(C)CCCCCCCCC(=O)NC1CC(O)C(NCCN)NC(=O)C2C(O)CCN2C(=O)C(C(O)CCN)NC(=O)C(C(O)C(O)c2ccc(O)cc2)NC(=O)C2CC(O)CN2C(=O)C(C(C)O)NC1=O", "note": "(centres undefined) [Caspofungin Acetate]", "NF-kB reporter": 0.953}
    ]}
  ]
}
